EC50 data for one molecule are collected here from patent US20240383985A1 (published 2024).

For one test, the target named is T1, CS1-Fc (UniProt Q9NQ25 23-226).
T1 chain: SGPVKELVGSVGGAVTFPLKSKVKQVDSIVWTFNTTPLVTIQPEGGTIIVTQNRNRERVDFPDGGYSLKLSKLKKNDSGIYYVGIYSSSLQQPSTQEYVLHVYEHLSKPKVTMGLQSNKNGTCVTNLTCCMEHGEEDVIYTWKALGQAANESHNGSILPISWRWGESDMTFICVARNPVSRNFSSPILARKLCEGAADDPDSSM
Nature of the test: ELISA.

Test [1] has as its target T2, CD38 naturally expressed on Daudi cells (human, UniProt P28907 1-300). Nature of the test: FACS; FIG. 23. (Flow cytometry measures light scatter and fluorescence of single cells or particles in a stream.)
For test [2], the target named is T2, CD38 naturally expressed on Daudi cells. As to the kind of experiment: FACS; FIG. 24.

A word on the EC50: it is the concentration needed to bring the measured effect to its halfway point.

B1: QP33123313 (protein)
chain 1: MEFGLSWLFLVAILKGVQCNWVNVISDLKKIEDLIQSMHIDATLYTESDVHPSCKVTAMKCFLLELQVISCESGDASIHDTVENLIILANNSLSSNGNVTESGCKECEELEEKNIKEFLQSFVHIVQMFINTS
chain 2: MEFGLSWLFLVAILKGVQCITCPPPMSVEHADIWVKSYSLYSRERYICNSGFKRKAGTCSLTECVLNKATNVAHWTTPSLKCIRDPALVHQRSGGSGGGGSGGGSGGGGSLQ[sequence of human IgG1 Fc with changes omitted]
In the case of B1, the values for the EC50 (with CS1-Fc; in test [1]; in test [2]) were ~4 µg/mL, ~5.35 nM and 0.833 nM, respectively.
